Reference: patent US20040142317A1, “Use of amino acid transporter atbo,+ as a delivery system for drugs and prodrugs” (priority 2003, published 2004)

What follows are molecules tested against T1, mouse ATB^0,+ (Mus musculus, UniProt Q9JMA9). Settings: not given.
T1 sequence (Q9JMA9 1-638): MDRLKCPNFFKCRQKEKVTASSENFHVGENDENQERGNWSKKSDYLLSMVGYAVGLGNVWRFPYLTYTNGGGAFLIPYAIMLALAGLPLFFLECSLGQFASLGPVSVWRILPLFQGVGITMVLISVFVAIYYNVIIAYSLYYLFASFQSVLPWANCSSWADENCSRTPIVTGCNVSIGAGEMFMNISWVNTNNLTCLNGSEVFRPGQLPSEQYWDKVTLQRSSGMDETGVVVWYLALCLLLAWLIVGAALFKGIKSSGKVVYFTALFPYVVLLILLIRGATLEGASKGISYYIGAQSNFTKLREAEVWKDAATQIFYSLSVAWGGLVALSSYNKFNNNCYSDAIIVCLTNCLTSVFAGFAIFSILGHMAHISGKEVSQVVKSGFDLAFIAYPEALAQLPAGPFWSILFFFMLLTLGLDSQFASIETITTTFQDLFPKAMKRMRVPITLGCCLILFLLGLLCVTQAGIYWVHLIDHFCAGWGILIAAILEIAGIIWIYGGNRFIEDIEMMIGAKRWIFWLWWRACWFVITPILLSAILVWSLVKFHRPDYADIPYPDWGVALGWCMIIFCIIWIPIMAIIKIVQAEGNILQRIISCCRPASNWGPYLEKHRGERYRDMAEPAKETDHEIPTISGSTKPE

| SMILES | ATB^0,+-specific glycine transport (% control) |
| --- | --- |
| NC(CCC(=O)Nc1ccccc1)C(=O)O (racemic) [DL-Glutamate γ-anilide] | 49 ± 1 % control |
| N[C@@H](CCC(=O)O)C(=O)O [Glutamate, L-Glutamate] | 82 ± 2 % control |
| N[C@@H](CCC(=O)Nc1cccc2ccccc12)C(=O)O [L-Glutamate γ-(α-napthylamide)] | 97 ± 2 % control |
| N[C@@H](CCC(=O)Nc1ccc2ccccc2c1)C(=O)O [L-Glutamate γ-(β-napthylamide)] | *79 ± 4 % control |

Same assay, conditions: HRPE, 0.25 h, read-out: mATB^0,+-Specific [^3H]-Glycine Transport, % (of control)

| SMILES | remaining activity at 2500 µM |
| --- | --- |
| N[C@@H](CCC(=O)O)C(=O)O [Glutamate, L-Glutamate] | 90% |

Same assay, conditions: compound 1 mM; [3H]glycine 10 μM; HRPE cells

| SMILES | ATB^0,+-specific glycine transport (% control) |
| --- | --- |
| NC(=O)C[C@H](N)C(=O)O [Asparagine, L-Asparagine] | 22 ± 0 % control |
| N[C@@H](CC(=O)O)C(=O)O [Aspartate, L-Aspartate] | 86 ± 3 % control |
| NC(=O)CC[C@H](N)C(=O)O [Glutamine, L-Glutamine] | 21 ± 1 % control |
| N[C@@H](CC(=O)OCc1ccccc1)C(=O)O [L-Aspartate β-benzyl ester] | 2 ± 1 % control |
| N[C@@H](CC(=O)NO)C(=O)O [L-Aspartate β-hydroxamate] | 39 ± 1 % control |
| COC(=O)C[C@H](N)C(=O)O [L-Aspartate β-methyl ester] | 8 ± 1 % control |
| N[C@@H](CCC(=O)OCc1ccccc1)C(=O)O [L-Glutamate γ-benzyl ester] | 13 ± 1 % control |

Same assay, conditions: read-out: IC50 for inhibition of ATB^0,+-mediated glycine transport; glycine 10 μM; HRPE cells

| SMILES | IC50 |
| --- | --- |
| CSC(N)=NCCC[C@H](N)C(=O)O [L-MTC] | 730 ± 90 µM |
| CC(=N)NCCCC[C@H](N)C(=O)O [L-NIL] | 2600 ± 290 µM |
| CC(=N)NCCC[C@H](N)C(=O)O [L-NIO] | 2650 ± 250 µM |
| CNC(=N)NCCC[C@H](N)C(=O)O [L-NMMA] | 770 ± 120 µM |
| NC(=S)NCCC[C@H](N)C(=O)O [L-TC] | 210 ± 30 µM |
